Experimental data taken from paper PMC3166162, “A Dual Binding Mode for RhoGTPases in Plexin Signalling” (PLoS Biology, 2011).
Each block holds one binder with its values, some of them ahead of it.

Assays:
[1] = molecular target: T1, Rac1* (Rac1 Gln61Leu, residues 1-176, loaded with GppNHp) (human, UniProt P63000, Gln61Leu); experiment: SPR; Biacore T100, 25°C, standard buffer with 0.05% (v/v) Tween 20; biotinylated plexin constructs on streptavidin surfaces (500-5,000 RU); RhoGTPase injected, 120 nM to 500 µM; equilibrium responses fitted to a 1:1 Langmuir model; conditions: both partners purified
[2] = molecular target: T1, Rac1* (Rac1 Gln61Leu, residues 1-176, …); experiment: SPR; as a1, high coupling density: 5,000 RU of the plexin construct loaded on the chip; RhoGTPase 120 nM to 2,000 µM; conditions: both partners purified

binding result [1]: binds
B1: Plexin-B1_(cyto) Leu2036Arg (domain or fragment)
chain: not shown
modifications: biotin, added enzymatically within the engineered C-terminal tag
notes: human Plexin-B1, cytoplasmic region, […]; also called Leu2036Arg^Plex; site B mutant; source: HEK 293T cells, transfected, purified; not shown: engineered tag for enzymatic biotinylation, C-terminal, kept

binding result [2]: binds
B2: Plexin-B1Δ2 Leu1815Glu (domain or fragment)
chain: not shown
modifications: biotin, added enzymatically within the engineered C-terminal tag
notes: human Plexin-B1, cytoplasmic region lacking the N-terminal helix, […]; also called site A Plexin-B1Δ2 mutant Leu1815Glu^Plex; source: HEK 293T cells, transfected, purified; not shown: engineered tag for enzymatic biotinylation, C-terminal, kept

binding result [1]: binds
B3: Plexin-B1_(cyto) Arg1921Ala (domain or fragment)
chain: not shown
modifications: biotin, added enzymatically within the engineered C-terminal tag
notes: human Plexin-B1, cytoplasmic region, […]; also called Arg1921Ala^Plex; site B mutant; source: HEK 293T cells, transfected, purified; not shown: engineered tag for enzymatic biotinylation, C-terminal, kept

binding result [1]: binds
B4: Plexin-B1_(cyto) Thr1920Glu (domain or fragment)
chain: not shown
modifications: biotin, added enzymatically within the engineered C-terminal tag
notes: human Plexin-B1, cytoplasmic region, […]; also called Thr1920Glu^Plex; site B mutant; source: HEK 293T cells, transfected, purified; not shown: engineered tag for enzymatic biotinylation, C-terminal, kept
